In PubChem BioAssay AID1508642 (National Center for Advancing Translational Sciences (NCATS), 2021):
The campaign covered roughly 43,000 compounds. About 200 (0.47%) were called active. About 12% were inconclusive and are not listed. Calls follow the shape of the dose curve; as a rule, active = well fitted cell-killing curve with a large enough effect; inconclusive = small, poorly fitted or top-dose-only effect, or effect the other way; inactive = flat fitted curve, though single readings scatter. The list shows a part of the results.

Experiment: Cell viability qHTS assay in S16 Pmp22-F2sN cells; also: nearly all actives have a fitted effect of over 65% in size
Details: S16 Pmp22-F2sN Schwann cells (luciferase reporters placed in the Pmp22 gene) viability, CellTiter-Glo, 24 h; series mostly up to 57.5 µM; activity change, negative = cytotoxicity: at the top concentration
Method in brief: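 Rat S16 Schwann reporter line, 24 h treatment with library compounds delivered at 23 nL per well. Cell viability by CellTiter-Glo luminescence.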
% is scaled to controls: 0 for no effect and ±100 for the full control effect.

SMILES | activity change, negative = cytotoxicity
Cc1ccc(C)c(N2CCN(C(=O)c3cc(S(=O)(=O)N4CCCC4)c[nH]3)CC2)c1 | inactive: 4.98%
CCCOc1ccc(C(=O)Nc2ccc(NC(=O)c3cccc(Cl)c3)cc2)cc1 | inactive: 4.35%
COc1cccc(Nc2cc(-c3ccccc3)nc(C)n2)c1 | inactive: -28.3%
CN(C)c1ccc(-c2nc(-c3ccncc3)no2)cc1[N+](=O)[O-] | inactive: -5.2%
Cc1ccc2c(c1)N(C(=O)N1CCC(C(=O)NC3CCCCCC3)CC1)CCO2 | inactive: 5.39%
Cc1ccc(-n2ncc3c(N4CCN(C)CC4)ncnc32)cc1 | inactive: 13.2%
CCCN(CCC)C(=O)Cn1c(=O)n(-c2ccc(C)cc2)c(=O)c2ccc(C(=O)NCc3ccccc3Cl)cc21 | inactive: 12%
CCc1sc(Nc2ccc(C)cc2Br)nc1-c1cc2cccc(OC)c2oc1=O | inactive: -3.49%
CCOC(=O)CSc1nc2c(sc3ccccc32)c(=O)n1Cc1ccc(C)cc1 | inactive: 26.4%
CC(=O)NCCNc1nc2c(-c3ccc(C)cc3)nnn2c2ccccc12 | inactive: 24%
CCC1CN(C(=O)N2CCC(C(=O)NCCc3ccc(C)cc3)CC2)c2ccccc2O1 (configuration not stated) | inactive: -6.06%
Cc1oc(-c2ccccc2)nc1CSc1nnc(C)n2c1cc1sccc12 | inactive: 5.56%
CCOCCCNC(=O)CCC(=O)NNc1nc2ccccc2c2nc(-c3ccccc3)nn12 | inactive: -7.73%
O=C(CCc1nnc2n(Cc3ccccc3Cl)c(=O)c3ccccc3n12)Nc1ccc(F)c(F)c1 | inactive: 7.89%
O=C(NCc1cccc(Br)c1)C1CCN(C(=O)c2sccc2-n2cccc2)CC1 | inactive: -18.3%
Cc1ccc(-n2nc(CO)c(C(=O)NCC(c3ccccc3)c3ccccc3)n2)cc1 | inactive: -4.64%
Cc1ccc(-c2cn3c(n2)sc2cc(C(=O)NCc4cccs4)ccc23)cc1 | inactive: 8.49%
CC(=O)N1c2ccccc2CC1C(=O)N1CCN(c2cccc(Cl)c2)CC1 (configuration not stated) | inactive: 13.9%
O=C(CC1C(=O)N(c2ccc(F)cc2)C(=O)N1Cc1ccc2c(c1)OCO2)Nc1ccc(F)cc1 (configuration not stated) | inactive: 7.75%
COc1cccc(-n2cc(C(=O)Oc3cccc(C(F)(F)F)c3)c3ccccc3c2=O)c1 | inactive: 4.39%
Cc1ccc(O)c(NC(=O)c2noc3c2CCCCC3)c1 | inactive: -4.9%
CCOC(=O)c1cnc2c(C)cccc2c1NCCc1ccc(OC)c(OC)c1 | inactive: -9.42%
Nc1c(-c2nc(-c3cccs3)no2)nnn1-c1cccc(F)c1 | inactive: 7.05%
Cc1ccc(C)c(CN2C(=O)c3ccccc3S(=O)(=O)c3ccc(C(=O)N4CCCC4)cc32)c1 | inactive: -4.81%
CCN(c1ncnc2c1cnn2-c1cc(Cl)ccc1C)C1CCCCC1 | inactive: -7.99%
CCOc1ccc(OCC)c(NC(=O)C(NS(=O)(=O)c2ccc(Br)s2)c2ccccc2)c1 (configuration not stated) | inactive: 7.33%
COc1cccc(CNC(=O)CN2C(=O)CCCc3ccccc32)c1OC | inactive: 11.5%
